These results are taken from PubChem BioAssay AID360 (National Center for Advancing Translational Sciences (NCATS), 2006).

Hit rate of the full screen: of about 48,000 compounds, about 550 (1.1%) were called active. Another 4% or so got no clear call; they are omitted. Cut-off read from the data, not from the text of the source: active = potency below about 15 µM; inconclusive = mostly about 16 µM to 33 µM; inactive = weaker than that. The list shows a part of the results. A value given as a limit tells only on which side of the number the result lay.
Potency is the fitted concentration of half-maximal effect.

The target of this assay is Lysosomal acid glucosylceramidase (Homo sapiens) (UniProt P04062). The assay can be described thus: Glucocerebrosidase.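 Note: the screen sought inhibitors.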 As to conditions: purified enzyme, resorufin glucoside fluorescence (screen aimed at inhibitors), 20 min; series mostly up to 77 µM. An outline of the steps: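 Compounds titrated against 0.2 nM normal enzyme, 30 uM resorufin beta-D-glucopyranoside substrate, citrate/phosphate buffer with taurocholate and tween-20, pH 5.9. Reaction ran 20 min at room temperature; fluorescence (Ex 548/Em 600) gave AC50.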
UniProt P04062, sequence (P04062 whole entry, looked up): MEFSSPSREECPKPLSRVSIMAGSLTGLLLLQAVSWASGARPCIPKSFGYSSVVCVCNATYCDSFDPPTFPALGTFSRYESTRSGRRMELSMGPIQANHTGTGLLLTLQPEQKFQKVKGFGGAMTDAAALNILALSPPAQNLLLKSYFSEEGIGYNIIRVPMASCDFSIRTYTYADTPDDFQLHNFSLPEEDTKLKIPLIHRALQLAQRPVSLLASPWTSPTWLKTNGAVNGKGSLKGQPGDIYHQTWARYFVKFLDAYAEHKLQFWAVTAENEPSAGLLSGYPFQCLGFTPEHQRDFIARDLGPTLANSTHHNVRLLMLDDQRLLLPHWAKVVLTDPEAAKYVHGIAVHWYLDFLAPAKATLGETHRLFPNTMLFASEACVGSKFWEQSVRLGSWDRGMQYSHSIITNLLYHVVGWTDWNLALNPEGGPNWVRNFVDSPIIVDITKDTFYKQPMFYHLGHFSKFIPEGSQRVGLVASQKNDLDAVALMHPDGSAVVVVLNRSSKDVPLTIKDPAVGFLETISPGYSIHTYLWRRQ
For the compound `Cc1ccc(CC2CC(=O)N(c3ccncc3)C2=O)cc1` (stereo not drawn), the Potency was inactive: > 76.9 µM.
To `COC(=O)C(O)(CC(=O)Nc1cccc(SC)c1)C(F)(F)F` (stereo not drawn) belongs inactive: > 76.9 µM.
To `O=C(c1ccc2c(c1)OCCO2)C1CCN(C(=O)c2ccc(F)cc2)CC1` belongs inactive: > 76.9 µM; to `CCOC(=O)c1cnc2nc(C)[nH]n2c1=O`, inactive: > 76.9 µM; to `Cc1cc(C)n2nc(CC(=O)NC3CCCCCCC3)nc2n1`, inactive: > 76.9 µM.
To `Cc1sc2ncnc(SCC(=O)NC(=O)NCc3ccco3)c2c1C` belongs inactive: > 76.9 µM; to `CCn1ncc(Br)c1C(=O)Nc1ccc(F)cc1F`, inactive: > 76.9 µM.
`Cn1c(=O)c2c(nc(CN3CCc4ccccc4C3)n2Cc2ccc(Cl)cc2)n(C)c1=O`: the Potency was inactive: > 76.9 µM.
The same measure for `COc1ccc(Cl)cc1C(=O)CSc1nc(N)cc(N)n1`: inactive: > 76.9 µM.
To `O=C(NCCCN1CCCC1=O)c1cc(=O)c2ccccc2o1` belongs inactive: > 76.9 µM.
To `CCCCOC(=O)CSc1nc(N)c(C#N)c(-c2ccc(OCC)cc2)c1C#N` belongs inactive: > 76.9 µM; to `CCOc1ccc(N2CC(C(=O)NCc3cccc(C)c3)CC2=O)cc1` (stereo not drawn), inactive: > 76.9 µM.
Regarding `CC1Cc2ccccc2N1C(=O)CSc1nnc(CNc2ccccc2)o1` (stereo not drawn), the Potency is inactive: > 76.9 µM.
To `c1ccc2c(c1)oc1c(Nc3ccc4c(c3)OCO4)ncnc12` belongs inactive: > 76.9 µM.
To `Cc1c(C2(O)C(=O)Nc3ccc(F)cc32)c(=O)n(-c2ccccc2)n1C` (stereo not drawn) belongs inactive: > 76.9 µM; to `CC1(C)CC(=O)C=C(NCC2CCCO2)C1` (stereo not drawn), inactive: > 76.9 µM; to `O=C(Nc1ccc(Cl)cc1)c1ccsn1`, inactive: > 76.9 µM.
The same measure for `Cc1c(NC(=O)C2CCCNC2=O)c(=O)n(-c2ccccc2)n1C` (stereo not drawn): inactive: > 76.9 µM; for `CCCCCn1c(=O)[nH]c2cc(C(=O)NCCCN3CCC(C)CC3)ccc2c1=O`: inactive: > 76.9 µM; for `O=C(C1CC(c2ccccc2O)=NO1)N1CCCC1` (stereo not drawn): inactive: > 76.9 µM.
For `COC(=O)c1ccccc1S(=O)(=O)Nc1ccc2cn[nH]c2c1`, the Potency is inactive: > 76.9 µM.
For the compound `CCOc1ccccc1-c1nc2c([nH]1)c(=O)n(C)c(=O)n2C`, the Potency is inactive: > 76.9 µM.
To `CCN1C(=O)C2(C(C#N)=C(N)Oc3cc(C)oc(=O)c32)c2ccccc21` (stereo not drawn) belongs inactive: > 76.9 µM; to `COC(=O)c1cc(C(=O)OC)cc(N2C(=O)CN=C2Nc2nc(C)cc(C)n2)c1`, inactive: > 76.9 µM; to `CCOC(=O)Cc1nnc(NC(=O)COc2ccc(C)cc2)s1`, inactive: > 76.9 µM.
To `CCCN1CCN(CCCNC(=O)Cn2nc(-c3ccccc3)ccc2=O)CC1` belongs inactive: > 76.9 µM.
`N#Cc1cn(CC(=O)O)c2ccccc12`: the Potency is inactive: > 76.9 µM.
Consider `Cc1cc(NC(=O)c2cc(-c3ccccc3)on2)n(-c2ccccc2)n1`, for which the Potency is inactive: > 76.9 µM.
The same measure for `Cc1nnc(SCC(=O)N2CCC(C(=O)Nc3nccs3)CC2)n1Cc1ccccc1`: inactive: > 76.9 µM.
The same measure for `CC1(c2ccc3c(c2)OCO3)NC(=O)N(CC(=O)Nc2ccc(N3CCOCC3)cc2)C1=O` (stereo not drawn): inactive: > 76.9 µM; for `CC(C)n1c(C(=O)OCC(=O)NCc2ccc3c(c2)OCO3)cc2sccc21`: inactive: > 76.9 µM; for `COc1cc(C2C(C(=O)c3ccco3)=C(O)C(=O)N2c2cc(C)on2)cc(Br)c1O` (stereo not drawn): inactive: > 76.9 µM.
The same measure for `CCn1c(N)c(C(=O)NCc2ccc3c(c2)OCO3)sc1=S`: inactive: > 76.9 µM; for `C=CCNc1nc(-c2ccc(OC)cc2OC)cs1`: inactive: > 76.9 µM; for `Cc1cc(C)cc(Oc2ccc(N)cc2)c1`: inactive: > 76.9 µM.
Regarding `Cn1c(=O)c2c(nc(CN3CCOCC3)n2CC(=O)c2ccccc2)n(C)c1=O`, the Potency was inactive: > 76.9 µM.
The same measure for `CN1/C(=C\C(=O)CN2C(=O)NC3(CCCCCC3)C2=O)C(C)(C)c2ccccc21`: inactive: > 76.9 µM; for `O=C(Cc1ccccc1)N1CCCC(c2nc(-c3cccs3)no2)C1` (stereo not drawn): inactive: > 76.9 µM; for `CC(C)(C)C(=O)Cn1c(=O)n(CC2CCCO2)c(=O)c2ccccc21` (stereo not drawn): inactive: > 76.9 µM.
The same measure for `CC(=O)N1CCc2cc(S(=O)(=O)NC(C(=O)NCc3ccccc3)C(C)C)ccc21` (stereo not drawn): inactive: > 76.9 µM; for `Cc1ccccc1OCc1nnc(SCC(=O)NCc2ccccc2)n1C`: inactive: > 76.9 µM; for `Cc1nnc(SCC(=O)Nc2sccc2C(N)=O)n1Cc1ccccc1`: inactive: > 76.9 µM.
To `O=C(O)C1CCCCC1C(=O)NCCCN1CCOCC1` (stereo not drawn) belongs inactive: > 76.9 µM.
For the compound `C=CCNC(=O)c1ccccc1Cl`, the Potency was inactive: > 76.9 µM.
To `CCC(C)N(C(=O)COC(=O)Cc1n[nH]c(=O)c2ccccc12)C1CCS(=O)(=O)C1` (stereo not drawn) belongs inactive: > 76.9 µM; to `COc1ccc2nc(CC(C)(C)CC(=O)O)c[n+]([O-])c2c1`, inactive: > 76.9 µM; to `Cc1[nH]nc2c1C1(CCOCC1)C(C#N)=C(N)O2`, inactive: > 76.9 µM.
The same measure for `COc1ccc(C2C(C(=O)c3cc4cccc(OC)c4o3)=C(O)C(=O)N2CCCN(C)C)cc1OC` (stereo not drawn): inactive: > 76.9 µM.
Take `Cn1c(=O)n(CCc2ccccc2)c(=O)c2c1nc1n2CCCN1c1ccc(F)cc1`: the Potency was inactive: > 76.9 µM.
To `CCCNC(=O)CN(c1ccc(F)c(Cl)c1)S(C)(=O)=O` belongs inactive: > 76.9 µM; to `CCN(C(=O)Cn1c(=O)n2nc(CCn3nc(C)cc3C)nc2c2ccccc21)c1cccc(C)c1`, inactive: > 76.9 µM; to `CCOc1ccc2nc(SCC(=O)c3cccs3)sc2c1`, inactive: > 76.9 µM.
The same measure for `COc1ccc(C(CC(=O)Nc2nccs2)n2cccc2)cc1` (stereo not drawn): inactive: > 76.9 µM; for `NC(=O)c1c(N)sc2c1CCCCC2`: inactive: > 76.9 µM.
`O=C(OCC(=O)N1CCN(C(=O)c2ccco2)CC1)C1=COCCO1`: the Potency was inactive: > 76.9 µM.
To `CCc1cc(=O)oc2cc(C)cc(OC(C)C(=O)O)c12` (stereo not drawn) belongs inactive: > 76.9 µM; to `Cc1ccc(-c2nnc(CSc3nc4cc5c(cc4cc3C)OCO5)o2)cc1`, inactive: > 76.9 µM.
With `CCOc1cccc(-c2nnc3sc(-c4cc(OC)c(OC)cc4OC)nn23)c1`, the Potency was inactive: > 76.9 µM.
